# Out of some 52,000 compounds screened, about 1,700 (3.3%) were called active. No stated cut-off is given here; in the data, active means survival mostly below about 52% (no sharp cut-off); inactive means mostly above about 56%. The list shows a part of the results.
# Tested on: Wild type
# Test: S. aureus survival, RN4220 and DeltatarO strains – OD600, teichoic acid synthesis inhibitors, primary screen (AID 463173)
# Details: S. aureus RN4220 wild type/DeltatarO growth, OD600, 18 h, hits give low values, screened at 18.75 µg/mL (by protocol)
row,Compound,survival
1,Cc1ccc(CNC(=O)CSc2ncc(S(=O)(=O)c3ccc(C)c(Cl)c3)c(=O)[nH]2)cc1,inactive: 68%
2,COc1ccc2c(c1)c1c(c(=O)n(-c3ccc(OC)c(OC)c3)c(=O)n1CC(=O)N1CCCC1)n2C,inactive: 127%
3,CCOc1ccc(OCC)c(NC(=O)CCc2nc3cccnc3n2Cc2cccs2)c1,inactive: 87%
4,COc1ccc(-c2nc(C)c(CCNC(=O)c3c(F)cccc3F)s2)cc1,inactive: 82%
5,COc1cc(Cl)c(C)cc1NC(=O)CSc1nc2c(c(=O)[nH]1)CCCC2,inactive: 76%
6,CCOC(=O)c1cccc(NC(=O)CC2C(=O)N(c3ccc(C)cc3)C(=O)N2Cc2cccc(OC)c2)c1 (configuration not stated),inactive: 82%
7,CN(C)c1ccc(CNC(=O)c2cnc3sc(N4CCCCCC4)nn3c2=O)cc1,inactive: 124%
8,COC(=O)N1CCCc2cc(S(=O)(=O)N3CCN(c4ccccc4)CC3)ccc21,inactive: 97%
9,CCCCNC(=O)CCCn1c(=O)c2ccccc2n(Cc2c(C)cc(C)cc2C)c1=O,inactive: 82%
10,O=C(CN1C(=O)c2cccc3cccc1c23)N1CCCC1,inactive: 97%
11,Cc1cccc(Cc2c(C)nc3nc(SCc4ccccc4Cl)nn3c2C)c1,active: -5%
12,Cc1ccc(C)c(Cn2c(=O)n(CCC(=O)NCc3ccc4c(c3)OCO4)c(=O)c3sccc32)c1,inactive: 91%
13,COc1ccc(C2CC(=O)Nc3c2c(=O)n(C)c2nc4ccccc4n32)cc1 (configuration not stated),inactive: 98%
14,CCCC(c1nnnn1Cc1ccccc1)N1CCN(c2ccccc2)CC1 (configuration not stated),inactive: 105%
15,COc1ccc(-c2noc(-c3ccc(C)cc3Cl)n2)cc1OC,inactive: 137%
16,CCOc1ccc(NC(=O)c2sc3ccccc3c2Cl)cc1,inactive: 83%
17,COc1cc(Cl)c(C)cc1NC(=O)CSc1cc(-c2ccccc2)nc(C)n1,inactive: 80%
18,CCOC(=O)c1[nH]c(C)c(C(=O)NCc2cccc(OC)c2)c1C,inactive: 85%
19,COc1ccc(CC(=O)NCCc2csc(-c3ccc(C(F)(F)F)cc3)n2)cc1,active: -6%

row,Compound,survival
1,CCc1ccccc1NC(=O)Cn1c(=O)n(CC(=O)NCCc2ccccc2)c(=O)c2ccccc21,inactive: 77%
2,CS(=O)(=O)n1nc(-c2ccco2)nc1NCc1ccccc1Cl,inactive: 86%
3,COc1ccc(C(=O)c2cn(Cc3cccc(C)c3)c3cc4c(cc3c2=O)OCO4)cc1,inactive: 76%
4,Cc1c(/C=C(\C#N)C(=O)Nc2cccc(Cl)c2)c2ccccc2n1Cc1ccccc1,inactive: 86%
5,COC(=O)c1sc2cccc(F)c2c1S(=O)(=O)Nc1ccc(C)cc1Cl,inactive: 63%
6,O=C(NN1C(=O)C2C3c4ccccc4C(c4ccccc43)C2C1=O)C1CC1 (configuration not stated),inactive: 117%
7,CC1CCN(CC(=O)Nc2ccc3ccccc3c2)CC1,inactive: 110%
8,Cc1ccc(NS(=O)(=O)c2ccc3c(c2)[C@H]2C=CC[C@H]2[C@@H](c2ccc(F)cc2)N3)cc1C,inactive: 63%
9,Cn1c(=O)c2c(SCC(=O)NCc3ccc(F)cc3)nc(-c3ccccc3Cl)nc2n(C)c1=O,inactive: 71%
10,Cc1ccc(NC(=O)CSc2nc3ccc(NC(=O)COc4ccc(C)cc4)cc3s2)cc1,inactive: 88%
11,COc1ccccc1N1CCN(C(=O)CCn2nc(C)c(S(=O)(=O)N3CCCC3)c2C)CC1,inactive: 90%
12,COc1ccc2[nH]c(=O)c(CN(Cc3ccc(C)cc3)C(C)=O)cc2c1,inactive: 115%
13,O=C(Nc1ccc2[nH]c(=O)c(=O)[nH]c2c1)c1cccc(F)c1,inactive: 140%
14,O=C(Nc1nnc(C2CC(=O)N(c3ccc(Cl)cc3)C2)s1)c1ccco1 (configuration not stated),inactive: 85%
15,Cc1ccc(SCc2nc(-c3ccc(C(=O)Nc4cc(C)ccc4C)cc3)oc2C)cc1,inactive: 129%
16,Cc1nc2c(-c3ccccc3)c(C)nn2c(C)c1CCC(=O)Nc1ccccc1F,inactive: 85%
17,Cn1c(=O)[nH]c(=O)c2[nH]c(NCCO)nc21,inactive: 104%
18,Cc1ccccc1C1=CCN(c2ncc(NC(=O)c3ccc(Cl)cc3)cc2C(=O)O)CC1,inactive: 69%
19,Cc1nc2nc(SCC(=O)NCCc3ccc(Cl)cc3)nn2c(C)c1Cc1ccccc1Cl,inactive: 80%

row,Compound,survival
1,O=C1CC(c2ccc(F)cc2)c2c(c3ccccc3[nH]c2=O)O1 (configuration not stated),inactive: 74%
2,CCOC(=O)c1ccc(NC(=O)CSc2nccn2-c2cc(C)cc(C)c2)cc1,inactive: 76%
3,CCOc1ccccc1NC(=O)Nc1cc2c(cc1N1CCCCC1)n(CC)c(=O)n2CC,inactive: 70%
4,CC(Sc1nc(-c2ccccc2)cc(C(F)(F)F)n1)C(=O)N1CCCC1 (configuration not stated),inactive: 105%
5,CC(=O)c1ccc(N2CCN(C(=O)CCn3cnc4onc(-c5ccc(F)cc5)c4c3=O)CC2)cc1,active: -6%
6,CCOc1ccccc1CNCc1c(C(=O)O)n(Cc2ccc(F)cc2)c2cc(C)ccc12,inactive: 84%
7,Cc1ccc(-c2noc(-c3cc(-c4ccc(F)cc4)n[nH]3)n2)cc1,inactive: 73%
8,CC(C(=O)O)N1CCCC1 (configuration not stated),inactive: 92%
9,O=C(Nc1c(-c2ccccc2)nc2ccccn12)c1ccccc1F,inactive: 61%
10,CCn1cc(C(=O)NCCc2ccc(C)cc2)c(=O)c2cc(S(=O)(=O)N3CCc4ccccc4C3)ccc21,inactive: 76%
11,Cc1cc(C)cc(NC(=O)CNS(=O)(=O)c2ccc3nc(C)sc3c2)c1,inactive: 75%
12,O=c1[nH]c2ccc(Cl)cc2c(-c2ccccc2)c1N1CCOCC1,inactive: 123%
13,CCC(=O)OCCn1c(=O)c2ccccc2c2ccccc2c1=O,inactive: 90%
14,CN1C(=O)Cc2cc(S(=O)(=O)CCC(=O)Nc3ccc(OC(F)(F)F)cc3)ccc21,inactive: 82%
15,CCN(C(=O)C1CCCN(c2ncnc3c2nc2n3CCCCC2)C1)c1cccc(C)c1 (configuration not stated),inactive: 84%
16,CCOc1ccc(OC(=O)c2c(-c3ccccc3Cl)noc2C)cc1,inactive: 59%
17,Cc1ccc(NC(=O)CN2C(=O)c3ccccc3Sc3ccc(C(=O)N4CCOCC4)cc32)c(Cl)c1,active: -6%
18,Cc1ccc(S(=O)(=O)N2CCCC2C(N)=O)cc1 (configuration not stated),inactive: 107%
19,CCN(CC)S(=O)(=O)c1ccc2oc(C(=O)Nc3cc(C)ccc3OC)c(C)c2c1,inactive: 69%

# — PubChem BioAssay AID463173 (ICCB-Longwood Screening Facility, Harvard Medical School, 2010)
